Experimental data published in the supplement of paper PMC10126150.
Sequences with one replicate were seen in a single cluster, so their values are uncertain.

Test system: ATP
Test: switch fluorescence ratio, 500 uM ATP over buffer (Cy3 cluster intensity, sum of 5 cycles each) (fold (ratio)); higher = stronger signal-on switching upon ATP binding; sequences stand for … in TCGTCGGCAGCGTCAGATGTGTATAAGAGACAGTTTTTTTTTTTTTTTTTTTTTTTTT…TC
Details: aptamer strand: ATP DNA aptamer (quencher-CACCTGGGGGAGTATTGCGGAGGAAGG + anchor), 100 nM annealed; ATP concentration: 500 uM; one replicate
How it was run: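 Five buffer/ATP imaging cycles were run on Cy3-labelled switching-strand clusters on a modified Illumina MiSeq flow-cell, with NaOH stripping and re-annealing between cycles. In each cycle, clusters annealed to 100 nM quencher-labelled ATP aptamer were imaged in selection buffer, then after 15 min with 500 uM ATP at 22 °C. Per cluster, the fluorescence ratio is summed target-cycle over summed buffer-cycle Cy3 intensity, averaged per switch-domain sequence. Only clusters within 100-1000 RFU were kept.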
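Further: ATP exposure 15 min at 22 °C before imaging.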

Which switch fluorescence ratio does the source give for ATCTGGTAT here?
The switch fluorescence ratio was 0.972.

How did the switch fluorescence ratio turn out when ATCTTCCGG was run?
Its switch fluorescence ratio is 1.28.

ATCTTTGCAA was tested. Which switch fluorescence ratio did it give?
Its switch fluorescence ratio is 2.42.

How did the switch fluorescence ratio turn out when ATCTTTTGTT was run?
Its switch fluorescence ratio is 1.02.

ATGAAAAGAC was tested. Which switch fluorescence ratio did it give?
Its switch fluorescence ratio is 1.04.

With ATGAAAATTC as the sequence, how does the switch fluorescence ratio read?
Its switch fluorescence ratio is 0.996.

ATGAAACCCA was tested. Which switch fluorescence ratio did it give?
Its switch fluorescence ratio is 1.04.

ATGAAAGT was tested. Which switch fluorescence ratio did it give?
Its switch fluorescence ratio is 1.04.

ATGAACACAC was tested. Which switch fluorescence ratio did it give?
Its switch fluorescence ratio is 1.25.

ATGAACAGGA was tested. Which switch fluorescence ratio did it give?
The switch fluorescence ratio was 0.997.

ATGAACAGTT was tested. Which switch fluorescence ratio did it give?
Its switch fluorescence ratio is 1.01.

For ATGAACGCAC, which switch fluorescence ratio is on record?
The switch fluorescence ratio was 2.12.

How did the switch fluorescence ratio turn out when ATGAAGACTC was run?
Its switch fluorescence ratio is 1.02.

With ATGAAGAG as the sequence, how does the switch fluorescence ratio read?
The switch fluorescence ratio was 1.01.

Which switch fluorescence ratio does the source give for ATGAAGGAAT here?
The switch fluorescence ratio was 0.985.

Which switch fluorescence ratio does the source give for ATGAAGGCAA here?
Its switch fluorescence ratio is 1.57.

For ATGAAGGGG, which switch fluorescence ratio is on record?
Its switch fluorescence ratio is 1.02.

How did the switch fluorescence ratio turn out when ATGAATGGAT was run?
The switch fluorescence ratio was 0.987.

Which switch fluorescence ratio does the source give for ATGAATTCGT here?
The switch fluorescence ratio was 0.999.

For ATGACAAGGG, which switch fluorescence ratio is on record?
The switch fluorescence ratio was 0.984.

For ATGACACATG, which switch fluorescence ratio is on record?
The switch fluorescence ratio was 0.981.

For ATGACCGTAC, which switch fluorescence ratio is on record?
The switch fluorescence ratio was 1.42.

How did the switch fluorescence ratio turn out when ATGACCTGCC was run?
Its switch fluorescence ratio is 3.04.

Which switch fluorescence ratio does the source give for ATGACGGGCC here?
The switch fluorescence ratio was 0.996.

How did the switch fluorescence ratio turn out when ATGACTAACG was run?
The switch fluorescence ratio was 1.18.

How did the switch fluorescence ratio turn out when ATGACTAGAC was run?
The switch fluorescence ratio was 1.1.

With ATGACTCGTT as the sequence, how does the switch fluorescence ratio read?
Its switch fluorescence ratio is 1.04.

For ATGACTTAAT, which switch fluorescence ratio is on record?
The switch fluorescence ratio was 1.03.

For ATGAGCATCA, which switch fluorescence ratio is on record?
The switch fluorescence ratio was 1.01.

ATGAGCCCGT was tested. Which switch fluorescence ratio did it give?
The switch fluorescence ratio was 1.07.

For ATGAGCCTCG, which switch fluorescence ratio is on record?
Its switch fluorescence ratio is 1.03.

ATGAGCGCAT was tested. Which switch fluorescence ratio did it give?
The switch fluorescence ratio was 1.11.

ATGAGGAGTA was tested. Which switch fluorescence ratio did it give?
The switch fluorescence ratio was 1.06.

With ATGAGGGATG as the sequence, how does the switch fluorescence ratio read?
Its switch fluorescence ratio is 0.998.

Which switch fluorescence ratio does the source give for ATGAGGGGAT here?
The switch fluorescence ratio was 0.99.

With ATGAGTCCTA as the sequence, how does the switch fluorescence ratio read?
Its switch fluorescence ratio is 0.999.

With ATGAGTGT as the sequence, how does the switch fluorescence ratio read?
The switch fluorescence ratio was 0.988.

For ATGATAAAAG, which switch fluorescence ratio is on record?
Its switch fluorescence ratio is 1.04.

With ATGATAAGGC as the sequence, how does the switch fluorescence ratio read?
The switch fluorescence ratio was 0.939.

With ATGATAGCTC as the sequence, how does the switch fluorescence ratio read?
The switch fluorescence ratio was 0.942.

With ATGATATGGA as the sequence, how does the switch fluorescence ratio read?
The switch fluorescence ratio was 1.08.

With ATGATGCCAA as the sequence, how does the switch fluorescence ratio read?
Its switch fluorescence ratio is 1.03.

For ATGATTGAGA, which switch fluorescence ratio is on record?
The switch fluorescence ratio was 1.11.

ATGCAAAGTG was tested. Which switch fluorescence ratio did it give?
Its switch fluorescence ratio is 0.963.

For ATGCAACGTT, which switch fluorescence ratio is on record?
Its switch fluorescence ratio is 1.02.

ATGCAAGTAT was tested. Which switch fluorescence ratio did it give?
The switch fluorescence ratio was 0.962.

Which switch fluorescence ratio does the source give for ATGCACGGCA here?
The switch fluorescence ratio was 1.01.

How did the switch fluorescence ratio turn out when ATGCAGGGAG was run?
Its switch fluorescence ratio is 1.03.

ATGCAGGGTA was tested. Which switch fluorescence ratio did it give?
Its switch fluorescence ratio is 1.05.

Which switch fluorescence ratio does the source give for ATGCATCG here?
The switch fluorescence ratio was 1.

How did the switch fluorescence ratio turn out when ATGCCCAAGG was run?
Its switch fluorescence ratio is 1.18.

Which switch fluorescence ratio does the source give for ATGCCCTGTG here?
The switch fluorescence ratio was 1.07.

ATGCCTTG was tested. Which switch fluorescence ratio did it give?
Its switch fluorescence ratio is 1.04.

With ATGCGCACGT as the sequence, how does the switch fluorescence ratio read?
Its switch fluorescence ratio is 1.05.

ATGCGGGCTA was tested. Which switch fluorescence ratio did it give?
The switch fluorescence ratio was 1.

Which switch fluorescence ratio does the source give for ATGCGGGGGA here?
Its switch fluorescence ratio is 1.01.

With ATGCGTAGTG as the sequence, how does the switch fluorescence ratio read?
The switch fluorescence ratio was 0.955.

ATGCGTATA was tested. Which switch fluorescence ratio did it give?
Its switch fluorescence ratio is 1.03.

Which switch fluorescence ratio does the source give for ATGCGTGCGC here?
The switch fluorescence ratio was 1.

ATGCTAAACT was tested. Which switch fluorescence ratio did it give?
The switch fluorescence ratio was 0.985.

With ATGCTAAAGG as the sequence, how does the switch fluorescence ratio read?
The switch fluorescence ratio was 0.981.

ATGCTAACCG was tested. Which switch fluorescence ratio did it give?
Its switch fluorescence ratio is 1.02.

For ATGCTAGATG, which switch fluorescence ratio is on record?
The switch fluorescence ratio was 1.04.

ATGCTAGTTA was tested. Which switch fluorescence ratio did it give?
The switch fluorescence ratio was 1.01.

How did the switch fluorescence ratio turn out when ATGCTCCCCA was run?
The switch fluorescence ratio was 2.58.

With ATGCTCGGCG as the sequence, how does the switch fluorescence ratio read?
Its switch fluorescence ratio is 1.03.

With ATGCTCGGT as the sequence, how does the switch fluorescence ratio read?
Its switch fluorescence ratio is 1.01.

Which switch fluorescence ratio does the source give for ATGCTGGG here?
The switch fluorescence ratio was 1.1.

Which switch fluorescence ratio does the source give for ATGCTGGGG here?
Its switch fluorescence ratio is 1.01.

ATGCTTACCA was tested. Which switch fluorescence ratio did it give?
The switch fluorescence ratio was 1.07.

ATGCTTCACT was tested. Which switch fluorescence ratio did it give?
The switch fluorescence ratio was 0.953.

For ATGCTTTTTG, which switch fluorescence ratio is on record?
Its switch fluorescence ratio is 0.974.

How did the switch fluorescence ratio turn out when ATGGAAACGC was run?
Its switch fluorescence ratio is 0.976.

ATGGAAAGCC was tested. Which switch fluorescence ratio did it give?
Its switch fluorescence ratio is 0.99.

Which switch fluorescence ratio does the source give for ATGGAACGA here?
Its switch fluorescence ratio is 0.932.

ATGGAATATC was tested. Which switch fluorescence ratio did it give?
The switch fluorescence ratio was 1.08.

For ATGGACGCCC, which switch fluorescence ratio is on record?
Its switch fluorescence ratio is 1.02.

With ATGGACTTGG as the sequence, how does the switch fluorescence ratio read?
Its switch fluorescence ratio is 1.03.

How did the switch fluorescence ratio turn out when ATGGATCCGT was run?
Its switch fluorescence ratio is 0.963.

Which switch fluorescence ratio does the source give for ATGGCAAGAT here?
The switch fluorescence ratio was 1.1.

ATGGCAAGTT was tested. Which switch fluorescence ratio did it give?
The switch fluorescence ratio was 1.03.

For ATGGCAGAG, which switch fluorescence ratio is on record?
The switch fluorescence ratio was 1.07.

With ATGGCATGGG as the sequence, how does the switch fluorescence ratio read?
Its switch fluorescence ratio is 0.986.

How did the switch fluorescence ratio turn out when ATGGCCCCCC was run?
The switch fluorescence ratio was 0.986.

ATGGCCGCGT was tested. Which switch fluorescence ratio did it give?
The switch fluorescence ratio was 1.05.

For ATGGCGAAGG, which switch fluorescence ratio is on record?
The switch fluorescence ratio was 1.02.

With ATGGCGCAGA as the sequence, how does the switch fluorescence ratio read?
Its switch fluorescence ratio is 0.971.

How did the switch fluorescence ratio turn out when ATGGCGGTGC was run?
The switch fluorescence ratio was 1.03.

With ATGGCGTATA as the sequence, how does the switch fluorescence ratio read?
Its switch fluorescence ratio is 1.04.

For ATGGCGTCGA, which switch fluorescence ratio is on record?
The switch fluorescence ratio was 0.947.

Which switch fluorescence ratio does the source give for ATGGCGTTGA here?
The switch fluorescence ratio was 1.01.

For ATGGCTACCC, which switch fluorescence ratio is on record?
The switch fluorescence ratio was 1.08.

For ATGGCTATTG, which switch fluorescence ratio is on record?
The switch fluorescence ratio was 1.01.

Which switch fluorescence ratio does the source give for ATGGCTCGAC here?
The switch fluorescence ratio was 1.05.

Which switch fluorescence ratio does the source give for ATGGCTGGGA here?
The switch fluorescence ratio was 0.957.

How did the switch fluorescence ratio turn out when ATGGGAGGTA was run?
The switch fluorescence ratio was 1.01.

How did the switch fluorescence ratio turn out when ATGGGCAGAA was run?
Its switch fluorescence ratio is 0.985.

Which switch fluorescence ratio does the source give for ATGGGGGA here?
The switch fluorescence ratio was 1.03.

Which switch fluorescence ratio does the source give for ATGGGGGCCC here?
Its switch fluorescence ratio is 1.01.

With ATGGGGTTAT as the sequence, how does the switch fluorescence ratio read?
Its switch fluorescence ratio is 0.995.
